Among all 310,000 compounds or so, about 14,000 (4.5%) showed an effect of 50% or more. The effect is printed as a negative number. The list shows a part of the results.
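Note: peak tail current of the secondary pulse compared with the same well before compound.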

In this assay the target is human ether-à-go-go-related gene (hERG) potassium channel (human, UniProt Q12809). Description: primary screen, population patch clamp on CHO cells stably expressing hERG.
Chain of human ether-à-go-go-related gene (hERG) potassium channel (Q12809 whole entry, looked up): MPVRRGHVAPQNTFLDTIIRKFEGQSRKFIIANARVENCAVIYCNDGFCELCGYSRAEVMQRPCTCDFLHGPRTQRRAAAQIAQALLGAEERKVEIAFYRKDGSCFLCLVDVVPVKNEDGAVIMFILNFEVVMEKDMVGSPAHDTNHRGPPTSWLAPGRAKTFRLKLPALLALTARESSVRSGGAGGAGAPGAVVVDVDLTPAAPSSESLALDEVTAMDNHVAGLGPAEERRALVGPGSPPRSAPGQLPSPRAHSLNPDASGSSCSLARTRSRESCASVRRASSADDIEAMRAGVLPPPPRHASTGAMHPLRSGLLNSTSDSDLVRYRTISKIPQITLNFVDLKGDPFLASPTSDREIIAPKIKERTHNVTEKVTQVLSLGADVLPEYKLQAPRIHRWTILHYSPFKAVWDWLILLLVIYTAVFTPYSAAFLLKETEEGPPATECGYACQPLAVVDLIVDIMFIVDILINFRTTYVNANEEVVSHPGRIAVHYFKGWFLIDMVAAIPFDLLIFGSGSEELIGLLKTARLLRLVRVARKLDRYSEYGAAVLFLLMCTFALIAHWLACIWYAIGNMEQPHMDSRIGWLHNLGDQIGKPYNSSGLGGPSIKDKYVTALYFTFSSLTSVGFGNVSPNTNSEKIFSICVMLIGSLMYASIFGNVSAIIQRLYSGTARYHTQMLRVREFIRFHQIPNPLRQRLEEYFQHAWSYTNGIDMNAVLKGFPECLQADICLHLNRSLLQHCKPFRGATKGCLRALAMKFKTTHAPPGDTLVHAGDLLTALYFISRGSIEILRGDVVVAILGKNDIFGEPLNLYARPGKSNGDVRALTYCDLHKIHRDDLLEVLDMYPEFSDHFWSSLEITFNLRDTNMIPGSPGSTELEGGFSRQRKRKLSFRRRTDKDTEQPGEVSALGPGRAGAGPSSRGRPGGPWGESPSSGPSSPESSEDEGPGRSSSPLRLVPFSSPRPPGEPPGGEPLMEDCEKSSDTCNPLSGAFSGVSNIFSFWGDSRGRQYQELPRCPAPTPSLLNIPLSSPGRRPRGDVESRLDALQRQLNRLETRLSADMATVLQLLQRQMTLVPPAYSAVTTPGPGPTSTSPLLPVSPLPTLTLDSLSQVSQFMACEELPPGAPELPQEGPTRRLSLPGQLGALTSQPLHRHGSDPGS
As to `O=C(NC1CCN(C(=S)Nc2ccc(F)cc2)CC1)c1ccco1`, the “hERG current change (%, negative = inhibition) at 10uM” value is recorded as -39%.

For the molecule `COc1cc2c(cc1OC)C(C)N(S(=O)(=O)c1cn(C)cn1)CC2` (stereo not shown), the “hERG current change (%, negative = inhibition) at 10uM” value stood at 7.14%.

For the molecule `CN(Cc1ccccc1)C(=O)CN(c1ccccc1Cl)S(C)(=O)=O`, the “hERG current change (%, negative = inhibition) at 10uM” value stood at 18.6%.

`O=C(NCc1ccco1)c1sc2cccc(F)c2c1Cl`: the “hERG current change (%, negative = inhibition) at 10uM” value came out at 5.41%.

Regarding `O=c1[nH]n2c(=O)c3c([nH]c2c1N=Nc1ccccc1)CCC3`, the “hERG current change (%, negative = inhibition) at 10uM” value is 15.1%.

As for `O=C(Cn1ccc2ccccc2c1=O)NCC1COc2ccccc2O1` (stereo not shown), the “hERG current change (%, negative = inhibition) at 10uM” value is given as -7.8%.

In the case of `Cc1ccc(Nc2ncnc3nc[nH]c23)cc1Cl`, the “hERG current change (%, negative = inhibition) at 10uM” value is 17.8%.

With `O=S1(=O)CCN(C(CCO)c2cccc(C(F)(F)F)c2)CC1` (stereo not shown), the “hERG current change (%, negative = inhibition) at 10uM” value was found to be 1.1%.

Consider `CN(C)c1ccc(NC(=O)CN2C3CCCC2CC(NC(=O)c2ccccc2)C3)cc1` (stereo not shown), for which the “hERG current change (%, negative = inhibition) at 10uM” value is -65.3%.

With `COc1ccccc1CC(=O)N1CCCc2cc(C)ccc21`, the “hERG current change (%, negative = inhibition) at 10uM” value was 14.8%.

For `O=C(/C=C/c1ccc2c(c1)OCO2)N1CCN(c2ccccc2F)CC1`, the “hERG current change (%, negative = inhibition) at 10uM” value is reported as -6.73%.

Regarding `Br.O=C(CN1CCCCC1)c1ccc(OC(F)F)cc1`, the “hERG current change (%, negative = inhibition) at 10uM” value was -69.6%.

For the molecule `O=C(Cc1cccs1)Nc1ccc(-c2nnc(-c3ccco3)o2)cc1`, the “hERG current change (%, negative = inhibition) at 10uM” value is given as -0.213%.

For the molecule `COC(=O)C1=C(C)N(Cc2ccco2)C(=O)N[C@@H]1c1ccc(Br)cc1`, the “hERG current change (%, negative = inhibition) at 10uM” value is listed as 3.65%.

As for `COc1ccccc1CC(=O)N1CCC(CCC(=O)NC2CC2)CC1`, the “hERG current change (%, negative = inhibition) at 10uM” value was 13.8%.

Regarding `O=C(CC1CCS(=O)(=O)C1)NC1CCCCC1` (stereo not shown), the “hERG current change (%, negative = inhibition) at 10uM” value is given as -0.93%.

On to `COc1ccc(C(=O)C[n+]2ccc(-c3nnc4n3CCCCC4)cc2)cc1.[Br-]`, for which the “hERG current change (%, negative = inhibition) at 10uM” value was 13.2%.

`CC(C)Cn1c(C(C)NC(=O)Cc2ccccc2)nc2ccccc21` (stereo not shown): the “hERG current change (%, negative = inhibition) at 10uM” value is reported as -1.69%.

In the case of `COc1ccc(C(=O)CSc2nccn2C)c(OC)c1`, the “hERG current change (%, negative = inhibition) at 10uM” value turned out to be 1.09%.

For the molecule `COc1ccc(-c2nnc(SCC(=O)N3CCC(Cc4ccccc4)CC3)o2)cc1OC`, the “hERG current change (%, negative = inhibition) at 10uM” value was -18.3%.

`CC1=C(C(=O)OCc2ccccc2)C(c2ccc(Br)cc2)NC(=O)N1CCCCCC(=O)O` (stereo not shown): the “hERG current change (%, negative = inhibition) at 10uM” value is -11.6%.

For the molecule `CCc1ccc2[nH]c(=O)c(CN(CCN(CC)CC)C(=O)Nc3ccccc3OC)cc2c1`, the “hERG current change (%, negative = inhibition) at 10uM” value was -76.5%.

For `COC(=O)c1cnc(Nc2cccc(C(F)(F)F)c2)c([N+](=O)[O-])c1`, the “hERG current change (%, negative = inhibition) at 10uM” value was -12.3%.

Regarding `COC(=O)C1=C(C)N(c2ccc(F)c(Cl)c2)C(=O)C1`, the “hERG current change (%, negative = inhibition) at 10uM” value is recorded as -4.92%.

Turning to `Cc1ccc(-c2n[nH]c(=O)c3ccccc23)cc1S(=O)(=O)NCCO`, the “hERG current change (%, negative = inhibition) at 10uM” value is -12.1%.

Regarding `O=c1[nH]c2ccc(S(=O)(=O)NCc3ccccc3)cc2[nH]1`, the “hERG current change (%, negative = inhibition) at 10uM” value is 16.8%.

On to `COc1cccc(N(CC(=O)NCCSCc2ccc(C)cc2)S(C)(=O)=O)c1`, for which the “hERG current change (%, negative = inhibition) at 10uM” value worked out at 3.33%.

Take `O=C(NCc1ccc(Cl)cc1)c1ncn[nH]1`: the “hERG current change (%, negative = inhibition) at 10uM” value worked out at 6.7%.

As for `C=CCc1cccc2cc(C(=O)Nc3ccc(F)cc3)c(=O)oc12`, the “hERG current change (%, negative = inhibition) at 10uM” value is 5.83%.

As to `CN1CCN(CC(=O)Nc2cc(N(C)C)nc3ccccc23)CC1.Cl`, the “hERG current change (%, negative = inhibition) at 10uM” value is on record as 8.25%.

Consider `O=c1nc(/C=C/c2ccc(-c3ccc(F)cc3)o2)cc(C(F)(F)F)[nH]1`, for which the “hERG current change (%, negative = inhibition) at 10uM” value came to 11.2%.

Consider `O=C(C1=C[C@@H]2[C@H]3C(=O)N(c4ccc(Cl)cc4)C(=O)[C@H]3[C@@H](C(=O)c3ccc(Cl)cc3)N2C=C1)c1ccccc1`, for which the “hERG current change (%, negative = inhibition) at 10uM” value was 6.92%.

Consider `C=CCOc1ccccc1NC(=O)CN1C(=O)CNC1=O`, for which the “hERG current change (%, negative = inhibition) at 10uM” value came out at 23.6%.

Turning to `Cc1nnc(NC(=O)c2ccc(S(=O)(=O)N3CCOCC3)cc2)s1`, the “hERG current change (%, negative = inhibition) at 10uM” value came to 2.93%.

Consider `CCOC(=O)C1CCCN(Cc2nc(CC3CC3)no2)C1` (stereo not shown), for which the “hERG current change (%, negative = inhibition) at 10uM” value was determined as 0.541%.

`COc1ccc(/C=C(/CC(=O)Nc2ccc(C)cc2)c2nc3ccccc3s2)cc1`: the “hERG current change (%, negative = inhibition) at 10uM” value was 3.77%.

As to `Oc1ccc(C(c2nnnn2CCc2ccccc2)N2CCN(c3nc4ccccc4s3)CC2)cc1` (stereo not shown), the “hERG current change (%, negative = inhibition) at 10uM” value is on record as 9.25%.

With `CCOC(=O)c1ccc(NC(=S)Nc2ccc(Cl)cn2)cc1`, the “hERG current change (%, negative = inhibition) at 10uM” value was -2.85%.

Regarding `O=C(Nc1cccc(NC(=O)c2cccnc2)c1)c1ccccc1`, the “hERG current change (%, negative = inhibition) at 10uM” value was 2.4%.

As for `C=CCn1c(O)c(C(CC)=Nc2ccc(N(C)C)cc2)c(=O)[nH]c1=O`, the “hERG current change (%, negative = inhibition) at 10uM” value is listed as 6.81%.

Take `CSc1nc(N2CCOCC2)c2c(c1C#N)CCCCC2`: the “hERG current change (%, negative = inhibition) at 10uM” value is -12.6%.

For `COc1cc(C(=O)Nc2nnc(Cc3ccccc3)s2)cc(OC)c1OC`, the “hERG current change (%, negative = inhibition) at 10uM” value is given as -17.6%.

`Cc1cc2ncc(-c3ccccc3)nc2cc1C`: the “hERG current change (%, negative = inhibition) at 10uM” value is reported as 14.2%.

In the case of `O=C(O)CC(NC(=O)Cc1ccc(Cl)cc1)c1ccco1` (stereo not shown), the “hERG current change (%, negative = inhibition) at 10uM” value worked out at 8.55%.

For `CCCn1c(=O)n(C)c(=O)c2c(SCC(=O)Nc3cc(C)on3)nc(C(C)(C)C)nc21`, the “hERG current change (%, negative = inhibition) at 10uM” value is listed as -28.3%.

As for `CCOC(=O)N1C(=O)[C@@](CC)(c2ccccc2)N1C(=O)OCC`, the “hERG current change (%, negative = inhibition) at 10uM” value stood at 10.5%.

For `O=C(c1ccc(NC(=O)C(c2ccccc2)c2ccccc2)cc1)c1ccc(C(=O)O)c(C(=O)O)c1`, the “hERG current change (%, negative = inhibition) at 10uM” value was 15.1%.

For `COC(=O)c1ccc(NC(=O)CSc2nnc(C3CC3)n2C)cc1`, the “hERG current change (%, negative = inhibition) at 10uM” value is -4.59%.

Regarding `C#CCOCCOCCOCCNc1nc(N2CCN(C(=O)[C@H]([C@@H](C)CC)n3cc([C@@H](N)CO)nn3)CC2)nc(N2CCN(C(=O)[C@H](Cc3ccc(O)cc3)n3cc([C@@H](N)CC(C)C)nn3)CC2)n1.Cl`, the “hERG current change (%, negative = inhibition) at 10uM” value is listed as 5.13%.

With `CN(C)c1ccc(NC(=O)CN2C(=O)c3ccccc3C2=O)cc1`, the “hERG current change (%, negative = inhibition) at 10uM” value turned out to be 10.9%.

On to `Cc1[nH]c2ccccc2c1CN1CCC(Cc2ccccc2)CC1.O=C(O)C(=O)O`, for which the “hERG current change (%, negative = inhibition) at 10uM” value is given as -67.4%.

As for `COc1cc2cnc(-c3ccccc3)c(-c3ccc(C(F)(F)F)cc3)c2cc1OC`, the “hERG current change (%, negative = inhibition) at 10uM” value amounted to 8.52%.

Regarding `Cc1ccc(S(=O)(=O)N2CCC(C(=O)NCCC3=CCCCC3)CC2)c(C)c1`, the “hERG current change (%, negative = inhibition) at 10uM” value is given as -23.6%.

In the case of `CCN(CC)CCCN=C(C)c1c(O)n(-c2ccccc2)c(=O)[nH]c1=O`, the “hERG current change (%, negative = inhibition) at 10uM” value is -16.6%.

Consider `COc1ccccc1CNCC(=O)Nc1cc(S(=O)(=O)N2CCCCCC2)ccc1Cl`, for which the “hERG current change (%, negative = inhibition) at 10uM” value turned out to be 2.93%.
